In publication PMC5540273 (PLoS ONE, 2017):
For part of these data: Shown are results outside the selection of strong results, which stands elsewhere. The entries are a selection whose mix differs from that of the whole data set.

system: MARK3; conditions: concentration: 1 μM,replicates: in singlicate; n = 1
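Further: KINOMEscan kinase panel screen.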

Row | Structure (SMILES) | %Inh
1 | O=C1NC(=O)C(c2ccc(Cl)cc2)=C1Nc1cccc(C(=O)O)c1 [SB-360737] | 0%
2 | COc1cccc(C2=C(Nc3ccc(SC)cc3)C(=O)NC2=O)c1 [SB-331032] | 0%
3 | O=C1NC(=O)C(c2ccccc2Cl)=C1Nc1cccc(C(=O)O)c1 [SB-390526] | 0%
4 | O=C1NC(=O)C(c2ccc(Cl)cc2)=C1Nc1cccc(O)c1 [SB-333613] | 0%
5 | CS(=O)(=O)c1ccccc1-c1nc(-c2ccc(F)cc2)c(-c2ccncc2)[nH]1 [SB-213663] | 0%
6 | Cc1cc(C)cc(Oc2nccc(-c3c(-c4ccc(F)cc4)ncn3C3CCNCC3)n2)c1.O=C(O)C(F)(F)F.O=C(O)C(F)(F)F.O=C(O)C(F)(F)F [SB-284851] | 49%
7 | O=C1NC(=O)C(c2ccccc2Cl)=C1Nc1ccccc1 [SB-376715] | 0%
8 | COc1ccc(C2=C(Nc3cccc(Cl)c3)C(=O)NC2=O)cc1 [SB-326892] | 11%
9 | O=C(O)c1ccc(-c2nc(-c3ccc(F)cc3)c(-c3ccncc3)[nH]2)cc1 [SB-202620] | 15%
10 | CSc1ccc(NC2=C(c3cccc(Cl)c3)C(=O)NC2=O)cc1 [SB-341528] | 35%
11 | Cc1ccc(C)c(Oc2nccc(-c3c(-c4ccc(F)cc4)ncn3C3CCNCC3)n2)c1.O=C(O)C(F)(F)F.O=C(O)C(F)(F)F.O=C(O)C(F)(F)F [SB-284852] | 23%
12 | O=C1NC(=O)c2c1c(-c1ccccc1)cc1[nH]c3ccc(O)cc3c21 | 47%
13 | O=C1NC(=O)C(c2ccc(Cl)cc2)=C1Nc1ccc(O)c(Cl)c1 [SB-405367] | 0%
14 | O=C1NC(=O)C(c2ccccc2)=C1Nc1cc(Cl)c(O)c(Cl)c1 [SB-390530] | 36%
15 | O=C1NC(=O)C(c2ccc(Cl)cc2)=C1Nc1ccccc1 [SB-317661] | 8%
16 | O=C1NC(=O)C(c2ccccc2)=C1Nc1ccc(Cl)c(C(=O)O)c1 [SB-390532] | 3%

system: MARK4; conditions: concentration: 1 μM,replicates: in singlicate; n = 1

Row | Structure (SMILES) | %Inh
17 | O=C1NC(=O)C(c2ccc(Cl)cc2)=C1Nc1cccc(C(=O)O)c1 [SB-360737] | 0%
18 | COc1cccc(C2=C(Nc3ccc(SC)cc3)C(=O)NC2=O)c1 [SB-331032] | 8%
19 | O=C1NC(=O)C(c2ccccc2Cl)=C1Nc1cccc(C(=O)O)c1 [SB-390526] | 0%
20 | O=C1NC(=O)C(c2ccc(Cl)cc2)=C1Nc1cccc(O)c1 [SB-333613] | 21%
21 | CS(=O)(=O)c1ccccc1-c1nc(-c2ccc(F)cc2)c(-c2ccncc2)[nH]1 [SB-213663] | 0%
22 | Cc1cc(C)cc(Oc2nccc(-c3c(-c4ccc(F)cc4)ncn3C3CCNCC3)n2)c1.O=C(O)C(F)(F)F.O=C(O)C(F)(F)F.O=C(O)C(F)(F)F [SB-284851] | 33%
23 | O=C1NC(=O)C(c2ccccc2Cl)=C1Nc1ccccc1 [SB-376715] | 12%
24 | COc1ccc(C2=C(Nc3cccc(Cl)c3)C(=O)NC2=O)cc1 [SB-326892] | 21%
25 | O=C(O)c1ccc(-c2nc(-c3ccc(F)cc3)c(-c3ccncc3)[nH]2)cc1 [SB-202620] | 36%
26 | CSc1ccc(NC2=C(c3cccc(Cl)c3)C(=O)NC2=O)cc1 [SB-341528] | 0%
27 | Cc1ccc(C)c(Oc2nccc(-c3c(-c4ccc(F)cc4)ncn3C3CCNCC3)n2)c1.O=C(O)C(F)(F)F.O=C(O)C(F)(F)F.O=C(O)C(F)(F)F [SB-284852] | 36%
28 | O=C1NC(=O)c2c1c(-c1ccccc1)cc1[nH]c3ccc(O)cc3c21 | 54%
29 | O=C1NC(=O)C(c2ccc(Cl)cc2)=C1Nc1ccc(O)c(Cl)c1 [SB-405367] | 0%
30 | O=C1NC(=O)C(c2ccccc2)=C1Nc1cc(Cl)c(O)c(Cl)c1 [SB-390530] | 0%
31 | O=C1NC(=O)C(c2ccc(Cl)cc2)=C1Nc1ccccc1 [SB-317661] | 23%
32 | O=C1NC(=O)C(c2ccccc2)=C1Nc1ccc(Cl)c(C(=O)O)c1 [SB-390532] | 0%

system: MAST1; conditions: concentration: 1 μM,replicates: in singlicate; n = 1

Row | Structure (SMILES) | %Inh
33 | O=C1NC(=O)C(c2ccc(Cl)cc2)=C1Nc1cccc(C(=O)O)c1 [SB-360737] | 9%
34 | COc1cccc(C2=C(Nc3ccc(SC)cc3)C(=O)NC2=O)c1 [SB-331032] | 32%
35 | O=C1NC(=O)C(c2ccccc2Cl)=C1Nc1cccc(C(=O)O)c1 [SB-390526] | 0%
36 | O=C1NC(=O)C(c2ccc(Cl)cc2)=C1Nc1cccc(O)c1 [SB-333613] | 41%
37 | CS(=O)(=O)c1ccccc1-c1nc(-c2ccc(F)cc2)c(-c2ccncc2)[nH]1 [SB-213663] | 24%
38 | Cc1cc(C)cc(Oc2nccc(-c3c(-c4ccc(F)cc4)ncn3C3CCNCC3)n2)c1.O=C(O)C(F)(F)F.O=C(O)C(F)(F)F.O=C(O)C(F)(F)F [SB-284851] | 19%
39 | O=C1NC(=O)C(c2ccccc2Cl)=C1Nc1ccccc1 [SB-376715] | 0%
40 | COc1ccc(C2=C(Nc3cccc(Cl)c3)C(=O)NC2=O)cc1 [SB-326892] | 0%
41 | O=C(O)c1ccc(-c2nc(-c3ccc(F)cc3)c(-c3ccncc3)[nH]2)cc1 [SB-202620] | 64%
42 | CSc1ccc(NC2=C(c3cccc(Cl)c3)C(=O)NC2=O)cc1 [SB-341528] | 7%
43 | Cc1ccc(C)c(Oc2nccc(-c3c(-c4ccc(F)cc4)ncn3C3CCNCC3)n2)c1.O=C(O)C(F)(F)F.O=C(O)C(F)(F)F.O=C(O)C(F)(F)F [SB-284852] | 0%
44 | O=C1NC(=O)c2c1c(-c1ccccc1)cc1[nH]c3ccc(O)cc3c21 | 0%
45 | O=C1NC(=O)C(c2ccc(Cl)cc2)=C1Nc1ccc(O)c(Cl)c1 [SB-405367] | 34%
46 | O=C1NC(=O)C(c2ccccc2)=C1Nc1cc(Cl)c(O)c(Cl)c1 [SB-390530] | 0%
47 | O=C1NC(=O)C(c2ccc(Cl)cc2)=C1Nc1ccccc1 [SB-317661] | 4%
48 | O=C1NC(=O)C(c2ccccc2)=C1Nc1ccc(Cl)c(C(=O)O)c1 [SB-390532] | 9%
